In all, about 43,000 compounds went through this assay and about 200 (0.47%) were called active. About 12% were inconclusive and are not listed. Calls follow the shape of the dose curve; as a rule, active = well fitted cell-killing curve with a large enough effect; inconclusive = small, poorly fitted or top-dose-only effect, or effect the other way; inactive = flat fitted curve, though single readings scatter. The list shows a part of the results.
Experiment: Cell viability qHTS assay in S16 Pmp22-F2sN cells; also: nearly all actives have a fitted effect of over 65% in size
Conditions: S16 Pmp22-F2sN Schwann cells (luciferase reporters placed in the Pmp22 gene) viability, CellTiter-Glo, 24 h; series mostly up to 57.5 µM; activity change, negative = cytotoxicity: at the top concentration
Procedure, shortened: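 CellTiter-Glo counter-screen, qHTS, 1536-well. Cells: S16(c9) Pmp22-F2sN, 500-1,000/well in DMEM + 10% FBS. Cpd 23 nL pin transfer, 24 h, 37C/5% CO2. Read: luminescence, CCD imager.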
% is scaled to controls: 0 for no effect and ±100 for the full control effect.

Row | Structure (SMILES) | activity change, negative = cytotoxicity
1 | Cc1ccc(-c2nnc3c4ccccc4c(C)nn23)cc1NC(=O)c1cccc(Br)c1 | inactive: -14.4%
2 | CCN1CCN(c2ncnc3c2cnn3-c2cc(Cl)ccc2C)CC1 | inactive: 19%
3 | CCOC(=O)c1c(S(=O)(=O)NCC(=O)N(C)Cc2ccccc2)c(C)n(C)c1C | inactive: 2.04%
4 | COc1ccccc1N1CCN(c2ncnc3c2c(-c2ccccc2)cn3-c2cccc(C)c2)CC1 | inactive: 16.5%
5 | CC1CCN(S(=O)(=O)c2csc(C(N)=O)c2)CC1 | inactive: 14.8%
6 | CCOC(=O)c1cnc(N2CCN(c3ccc(OC)cc3)CC2)c2ccccc12 | inactive: 18.1%
7 | CC(=O)Nc1nonc1-c1nnc(SCC(=O)Nc2ccc(C)c(Cl)c2)n1C | inactive: 3.1%
8 | CCOc1ccc2c(c1)c(=O)c(S(=O)(=O)c1ccc(C)cc1)cn2Cc1ccccc1Cl | inactive: -14%
9 | CCCOc1ccc(C2c3c(oc4ccc(F)cc4c3=O)C(=O)N2CCc2ccc(OC)cc2)cc1 (stereo not drawn) | inactive: 4.93%
10 | O=C(CSc1oc(-c2ccc(F)cc2)nc1S(=O)(=O)c1ccc(Br)cc1)NC1CCCCC1 | inactive: 2.8%
11 | CCC(=O)Nc1cccc(-c2nc3cc(C)ccc3o2)c1 | inactive: 17.2%
12 | CC(=O)c1ccc(N2CCN(c3ccc4cc(S(=O)(=O)N5CCC(C)CC5)ccc4n3)CC2)cc1 | inactive: 16.3%
13 | Cc1cccc(NC(=O)/C(C#N)=C/c2ccc(C)o2)c1 | inactive: -18.7%
14 | Cc1ccc(S(=O)(=O)c2cn(CC(=O)Nc3ccc(Cl)cc3)c3ccc(F)cc3c2=O)cc1C | inactive: -8.98%
15 | COc1cc(C2CC(=O)Nc3c2c(=O)n(C)c2ncnn32)cc(OC)c1OC (stereo not drawn) | inactive: -4.24%
16 | CCOC(=O)c1c(NC(=O)c2cc(CC)on2)sc(C(C)=O)c1C | inactive: -2.33%
17 | O=C(CN1c2ccccc2S(=O)(=O)c2ccccc21)Nc1cccc(C(F)(F)F)c1 | inactive: -3.31%
18 | Cc1cccc(Cn2c(Cc3ccccc3)nc3ccccc32)c1 | inactive: 13.3%
19 | O=C(NCc1ccc(F)cc1)c1ccc2oc(=O)n(Cc3ccccc3)c2c1 | inactive: 0.783%
20 | COc1ccccc1NC(=O)C(=O)NCC(c1cccnc1)N1CCc2ccccc2C1 (stereo not drawn) | inactive: -9.55%
21 | CCc1ccc(NC(=O)Cn2c(=O)c3cc(Cl)ccc3n3nncc23)cc1 | inactive: 14%
22 | CCOc1ccc(-c2cc(C(=O)NCCc3ccc(OC)c(OC)c3)[nH]n2)cc1 | inactive: 4.61%
23 | CN1CC(=O)N(CC(=O)Nc2ccc(OC(F)(F)F)cc2)c2ccccc2C1=O | inactive: 5.35%
24 | O=c1c2oc3ccccc3c2n(Cc2cccc(F)c2)c(=O)n1Cc1ccc2c(c1)OCO2 | inactive: -3.44%

Row | Structure (SMILES) | activity change, negative = cytotoxicity
25 | Cc1ccccc1CNC(=O)C(=O)NCC(c1cccs1)S(=O)(=O)c1cccs1 (stereo not drawn) | inactive: 5.49%
26 | COC(=O)c1cccc(CN2C(=O)SC(Nc3ccc(C)cc3)C2=O)c1 (stereo not drawn) | inactive: -1.4%
27 | C=Cc1ccc(Cn2c(SCC(=O)N3CCN(c4ccc(F)cc4)CC3)nc3ccccc32)cc1 | inactive: 2.09%
28 | CC(=O)Nc1nonc1-c1nnc(SCc2ccccc2)n1C | inactive: 3.85%
29 | COc1ccc(-n2nc(C(=O)Nc3cc(C)ccn3)c3c4ccccc4n(C)c3c2=O)cc1Cl | inactive: -7.13%
30 | COc1ccc(CNC(=O)c2cnc3ccc(C)cn3c2=O)cc1 | inactive: 6.77%
31 | Cc1ccccc1NC(=O)c1ccc(N(Cc2ccccc2)S(C)(=O)=O)cc1 | inactive: -12.3%
32 | CCc1nn(CC(=O)NC(C)CC)c(=O)c2cc3occc3n12 (stereo not drawn) | inactive: -1.33%
33 | CC(C)(C)OC(=O)N1CCC(c2c(C(=O)Nc3ccc4c(c3)OCO4)cnn2-c2ccccc2)CC1 | inactive: 4.37%
34 | O=C(COc1ccccc1)OCc1cc(=O)n2nc(-c3cccs3)sc2n1 | inactive: 0.234%
35 | Cc1c(Cl)cccc1NC(=O)c1cc2nc(-c3ccc4c(c3)OCO4)cc(C(F)(F)F)n2n1 | inactive: 2.01%
36 | COC(=O)c1ccccc1NC(=O)CCS(=O)(=O)c1nc(-c2ccc3c(c2)OCO3)cc(C(F)(F)F)n1 | inactive: -6.22%
37 | COc1ccccc1CNc1ncnc2c1nnn2C | inactive: -1.06%
38 | CCOCCCn1c(=N)c(S(=O)(=O)c2ccc(Cl)cc2)cc2c(=O)n3cccc(C)c3nc21 | inactive: 13.6%
39 | COC(=O)c1c(-c2cccs2)csc1NC(=O)c1ccc(C(C)C)cc1 | inactive: -10.5%
40 | O=C(NCc1ccc2c(c1)CCN2C(=O)c1ccncc1)c1ccccc1F | inactive: -3.25%
41 | COc1ccc(N2CCN(C(=O)CSCc3ccc(C)cc3)CC2)cc1 | inactive: -2.65%
42 | CC(=O)c1cccc(NS(=O)(=O)c2cccc(S(=O)(=O)c3ccc(Br)cc3)c2)c1 | inactive: -0.434%
43 | O=c1[nH]c(SCc2c(F)cccc2Cl)nc2c1CCCC2 | inactive: -4.14%
44 | Cc1ccc(NC(=O)CCS(=O)(=O)c2ccc3c(c2)oc(=O)n3C)c(Br)c1 | inactive: -56.2%
45 | Cc1ccc2nc(COc3cccc(NC(=O)COc4ccc(F)cc4)c3)cc(=O)n2c1 | inactive: -3.36%
46 | COc1ccc(NC(=O)c2cc3c(C)nn(-c4ccccc4)c3s2)c(OC)c1 | inactive: -4.95%
47 | Cc1c(Cl)cccc1Nc1nn2c(=O)c3ccc(C(=O)N(C)Cc4ccccc4)cc3nc2s1 | inactive: 1.17%
48 | CCOc1cc(S(=O)(=O)NCCc2c(C)[nH]c3ccc(C)cc23)ccc1Br | inactive: -6.29%

— PubChem BioAssay AID1508642 (National Center for Advancing Translational Sciences (NCATS), 2021)
